From PMC8786347 (Oncoimmunology, 2022)

T1: CD27-moFc (UniProt P26842 20-191)
T1 sequence (looked up): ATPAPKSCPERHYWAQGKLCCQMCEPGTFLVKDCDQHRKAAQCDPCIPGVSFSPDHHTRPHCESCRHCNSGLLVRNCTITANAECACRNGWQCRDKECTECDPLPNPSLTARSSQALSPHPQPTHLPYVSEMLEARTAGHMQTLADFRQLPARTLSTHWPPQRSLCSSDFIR

T2: OX40 (immobilized receptor, TNFRSF-Fc fusion protein, Figure 4a) (UniProt P43489 29-214)
T2 sequence (looked up): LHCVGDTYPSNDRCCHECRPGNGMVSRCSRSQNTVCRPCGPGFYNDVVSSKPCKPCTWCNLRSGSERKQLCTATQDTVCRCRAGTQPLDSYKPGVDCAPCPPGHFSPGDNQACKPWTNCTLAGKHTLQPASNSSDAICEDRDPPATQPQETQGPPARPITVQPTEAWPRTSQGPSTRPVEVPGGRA

T3: OX40-moFc (UniProt P43489 29-214)
T3 sequence (looked up): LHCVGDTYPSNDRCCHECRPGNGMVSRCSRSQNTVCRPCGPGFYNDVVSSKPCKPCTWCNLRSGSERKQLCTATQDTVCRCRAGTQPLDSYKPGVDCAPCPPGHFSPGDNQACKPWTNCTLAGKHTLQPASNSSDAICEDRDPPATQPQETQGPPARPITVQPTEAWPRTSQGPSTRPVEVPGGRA


Tests used:
Test in all cases: ELISA
[1] = target: 4-1BB-huFc (UniProt Q07011 24-186)
[2] = target: 4-1BB-moFc (UniProt Q07011 24-186)
[3] = target: T1, CD27-moFc
[4] = target: 4-1BB (immobilized receptor, TNFRSF-Fc fusion protein, Figure 4a) (UniProt Q07011 24-186)
[5] = target: T2, OX40 (immobilized receptor, TNFRSF-Fc …)
[6] = target: T3, OX40-moFc
[7] = target: CD40-moFc (UniProt P25942 fragment)
Sequence of UniProt P25942 (P25942 21-193): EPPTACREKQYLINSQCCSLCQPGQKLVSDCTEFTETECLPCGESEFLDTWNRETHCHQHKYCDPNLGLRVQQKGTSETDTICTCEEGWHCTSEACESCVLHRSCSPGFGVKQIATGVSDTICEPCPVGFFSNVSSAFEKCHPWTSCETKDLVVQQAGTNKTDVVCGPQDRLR

| EC50 [1] [nM] | EC50 [2] [nM] | EC50 [3] [nM] | fold increase of binding against scDk 4-1BBLxOX40L [4] [fold] | fold increase of binding against scDk 4-1BBLxOX40L [5] [fold] | EC50 [6] [nM] | EC50 [7] [nM] | Binder |
| --- | --- | --- | --- | --- | --- | --- | --- |
| 0.2 | 0.2 | 0.4 | – | – | – | – | sc4-1BBL-scCD27L-Fc (Fc fusion, human) chain 1: [about 200 residues not printed]GGGGSGGGGSGGGGSGGGGSREGPELSPDDPAGLLDLRQGMFAQLVAQNVLLIDGPLSWYSDPGLAGVSLTGGLSYKEDTKELVVAKAGVYYVFFQLELRRVVAGEGSGSVSLALHLQPLRSAAGAAALALTVDLPPASSEARNSAFGFQGRLLHLSAGQRLGVHLHTEARARHAWQLTQGATVLGLFRVTPEIPAGLPSPRSEGGGGSGGGGSGGGGSGGGGSREGPELSPDDPAGLLDLRQGMFAQLVAQNVLLIDGPLSWYSDPGLAGVSLTGGLSYKEDTKELVVAKAGVYYVFFQLELRRVVAGEGSGSVSLALHLQPLRSAAGAAALALTVDLPPASSEARNSAFGFQGRLLHLSAGQRLGVHLHTEARARHAWQLTQGATVLGLFRVTPEIPAGLPSPRSE chain 2: SLGWDVAELQLNHTGPQQDPRLYWQGGPALGRSFLHGPELDKGQLRIHRDGIYMVHIQVTLAICSSTTASRHHPTTLAVGICSPASRSISLLRLSFHQGCTIASQRLTPLARGDTLCTNLTGTLLPSRNTDETFFGVQWVRPGGSLGWDVAELQLNHTGPQQDPRLYWQGGPALGRSFLHGPELDKGQLRIHRDGIYMVHIQVTLAICSSTTASRHHPTTLAVGICSPASRSISLLRLSFHQGCTIASQRLTPLARGDTLCTNLTGTLLPSRNTDETFFGVQWVRPGGSLGWDVAELQLNHTGPQQDPRLYWQGGPALGRSFLHGPELDKGQLRIHRDGIYMVHIQVTLAICSSTTASRHHPTTLAVGICSPASRSISLLRLSFHQGCTIASQRLTPLARGDTLCTNLTGTLLPSRNTDETFFGVQWVRP |
| 0.4 | 0.3 | – | 4.9 | 2.4 | 0.4 | – | sc4-1BBL-scOX40L-Fc (Fc fusion, human) chain 1: [about 200 residues not printed]GGGGSGGGGSGGGGSGGGGSREGPELSPDDPAGLLDLRQGMFAQLVAQNVLLIDGPLSWYSDPGLAGVSLTGGLSYKEDTKELVVAKAGVYYVFFQLELRRVVAGEGSGSVSLALHLQPLRSAAGAAALALTVDLPPASSEARNSAFGFQGRLLHLSAGQRLGVHLHTEARARHAWQLTQGATVLGLFRVTPEIPAGLPSPRSEGGGGSGGGGSGGGGSGGGGSREGPELSPDDPAGLLDLRQGMFAQLVAQNVLLIDGPLSWYSDPGLAGVSLTGGLSYKEDTKELVVAKAGVYYVFFQLELRRVVAGEGSGSVSLALHLQPLRSAAGAAALALTVDLPPASSEARNSAFGFQGRLLHLSAGQRLGVHLHTEARARHAWQLTQGATVLGLFRVTPEIPAGLPSPRSE chain 2: QVSHRYPRIQSIKVQFTEYKKEKGFILTSQKEDEIMKVQNNSVIINCDGFYLISLKGYFSQEVNISLHYQKDEEPLFQLKKVRSVNSLMVASLTYKDKVYLNVTTDNTSLDDFHVNGGELILIHQNPGEFCVLGGGGSGGGGSGGGGSQVSHRYPRIQSIKVQFTEYKKEKGFILTSQKEDEIMKVQNNSVIINCDGFYLISLKGYFSQEVNISLHYQKDEEPLFQLKKVRSVNSLMVASLTYKDKVYLNVTTDNTSLDDFHVNGGELILIHQNPGEFCVLGGGGSGGGGSGGGGSQVSHRYPRIQSIKVQFTEYKKEKGFILTSQKEDEIMKVQNNSVIINCDGFYLISLKGYFSQEVNISLHYQKDEEPLFQLKKVRSVNSLMVASLTYKDKVYLNVTTDNTSLDDFHVNGGELILIHQNPGEFCVL |
| – | – | – | – | – | – | 0.4 | scCD40L-sc4-1BBL-Fc (Fc fusion, human) chain 1: GDQNPQIAAHVISEASSKTTSVLQWAEKGYYTMSNNLVTLENGKQLTVKRQGLYYIYAQVTFCSNREASSQAPFIASLCLKSPGRFERILLRAANTHSSAKPCGQQSIHLGGVFELQPGASVFVNVTDPSQVSHGTGFTSFGLLKLGGGDQNPQIAAHVISEASSKTTSVLQWAEKGYYTMSNNLVTLENGKQLTVKRQGLYYIYAQVTFCSNREASSQAPFIASLCLKSPGRFERILLRAANTHSSAKPCGQQSIHLGGVFELQPGASVFVNVTDPSQVSHGTGFTSFGLLKLGGGDQNPQIAAHVISEASSKTTSVLQWAEKGYYTMSNNLVTLENGKQLTVKRQGLYYIYAQVTFCSNREASSQAPFIASLCLKSPGRFERILLRAANTHSSAKPCGQQSIHLGGVFELQPGASVFVNVTDPSQVSHGTGFTSFGLLKL chain 2: [about 200 residues not printed]GGGGSGGGGSGGGGSGGGGSREGPELSPDDPAGLLDLRQGMFAQLVAQNVLLIDGPLSWYSDPGLAGVSLTGGLSYKEDTKELVVAKAGVYYVFFQLELRRVVAGEGSGSVSLALHLQPLRSAAGAAALALTVDLPPASSEARNSAFGFQGRLLHLSAGQRLGVHLHTEARARHAWQLTQGATVLGLFRVTPEIPAGLPSPRSEGGGGSGGGGSGGGGSGGGGSREGPELSPDDPAGLLDLRQGMFAQLVAQNVLLIDGPLSWYSDPGLAGVSLTGGLSYKEDTKELVVAKAGVYYVFFQLELRRVVAGEGSGSVSLALHLQPLRSAAGAAALALTVDLPPASSEARNSAFGFQGRLLHLSAGQRLGVHLHTEARARHAWQLTQGATVLGLFRVTPEIPAGLPSPRSE |
